# In the supplement of paper PMC11417369:
# The list shows a part of the results.
# Tested on: PfAP2-HC AP2 domain (GST-tagged)
# Assay: gcPBM binding intensity (ln(normalized median fluorescence intensity)); higher = stronger DNA binding
# How it was run: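 GST-tagged P. falciparum DNA-binding domains produced in E. coli were incubated for 1 h on an Agilent 4 × 180k array of primer-extended double-stranded 36-bp intergenic genomic probes with negative controls. Binding intensity is the highest Masliner-normalised natural-log median intensity across replicate spots of either probe orientation, with bound protein detected by Alexa488 anti-GST antibody at 488 nm.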
row,Sequence,gcPBM binding intensity (ln)
1,AATCGTGTTCTGAATACACACTAATACAAATTTGTA [CACACA_site6058],9.75
2,AACAAAAATAATAATCAAATAAATAAATGAAAACAT [CACACA_negctrl_site456],9.87
3,ATATTACAACATTTTATACACACGTGATTATTAATT [CACACA_site2877],9.87
4,AACATTTTAAAACAGACACACACCAAAAAAAAAAAA [CACACA_site257],10.2
5,CACCCATAAATATACACACGCACAACACAAAATAAA [CACACA_site2903],10.7
6,ATATATATATATACATGTACAAATGTATAACAAATG [XGTACX_site145],9.78
7,TGGTACCTTACTTTTACACACTTTTTTTTTTTTTTT [CACACA_site1557],9.91
8,CCATTTTAAATATGCACACAGATGCACTAACACATT [CACACA_site5099],10.1
9,AATATATACGCATGCGCACACACAAGTGGGAAATTT [CACACA_site1786],10.2
10,TTTTGAGTAGCCTATTGTACGAACTTTTTAAATACA [XGTACX_site1224],9.39
11,CATCCTATTACTTGGTGTACTATTTTATATTGAATA [XGTACX_site1050],9.85
12,ATAAATTTATCCAAGTGTACAAAGCTAACATTTTTT [XGTACX_site4399],9.59
13,GTTTATAAAATAAGAAGTACTTTATGAGAACCATAT [XGTACX_site5789],9.53
14,ATAAACAAGACGCAACAAAGTAGAAATTAAAAATAA [CACACA_negctrl_site345],10.1
15,AAAAATGGAATTATCTGTACATATATAGTTTTTAAA [XGTACX_site5580],9.59
16,ACATTAAGACACATTGCACACGTGCACCCATAGAAA [CACACA_site8029],9.8
17,ACCTGGACAAAAATAAATAAATAAATAAATAAATGA [GTGCAC_negctrl_site238],9.6
18,AATTCTTTTTTCAACACACACACACTAGAAAATATA [CACACA_site5681],10.3
19,TAAATACAGAAACACACACACAAATATATACATACA [CACACA_site2880],10.5
20,TTTATATATTATTAATGTACAAAATTTTTATTGCAT [XGTACX_site3329],9.43
21,CTTTTAATATGTGTAGTGCATTTTTTTTTTTTTTTT [GTGCAC_site9727],9.66
22,AAAAAAAAAAAAAACACACACAACACCCATACCTTA [CACACA_site3621],11.2
23,GTCCTTCATCATATTTAACACACAGAGAAAAAGCGG [CACACA_site7979],9.67
24,GGAATTATATGAAATAAACACACATATGTAATATTA [CACACA_site8586],9.84
